Out of some 310,000 compounds screened, about 14,000 (4.5%) showed an effect of 50% or more. The effect is printed as a negative number. This is one part of the list. Where a SMILES comes first, the peptide text is derived from it. The star is where a group is joined. Boc = CC(C)(C)OC(=O)*
The molecules below were run against human ether-à-go-go-related gene (hERG) potassium channel (human, UniProt Q12809) (assay: primary screen, population patch clamp on CHO cells stably expressing hERG).
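Also: peak tail current of the secondary pulse compared with the same well before compound.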

Sequence of human ether-à-go-go-related gene (hERG) potassium channel (Q12809 whole entry, looked up): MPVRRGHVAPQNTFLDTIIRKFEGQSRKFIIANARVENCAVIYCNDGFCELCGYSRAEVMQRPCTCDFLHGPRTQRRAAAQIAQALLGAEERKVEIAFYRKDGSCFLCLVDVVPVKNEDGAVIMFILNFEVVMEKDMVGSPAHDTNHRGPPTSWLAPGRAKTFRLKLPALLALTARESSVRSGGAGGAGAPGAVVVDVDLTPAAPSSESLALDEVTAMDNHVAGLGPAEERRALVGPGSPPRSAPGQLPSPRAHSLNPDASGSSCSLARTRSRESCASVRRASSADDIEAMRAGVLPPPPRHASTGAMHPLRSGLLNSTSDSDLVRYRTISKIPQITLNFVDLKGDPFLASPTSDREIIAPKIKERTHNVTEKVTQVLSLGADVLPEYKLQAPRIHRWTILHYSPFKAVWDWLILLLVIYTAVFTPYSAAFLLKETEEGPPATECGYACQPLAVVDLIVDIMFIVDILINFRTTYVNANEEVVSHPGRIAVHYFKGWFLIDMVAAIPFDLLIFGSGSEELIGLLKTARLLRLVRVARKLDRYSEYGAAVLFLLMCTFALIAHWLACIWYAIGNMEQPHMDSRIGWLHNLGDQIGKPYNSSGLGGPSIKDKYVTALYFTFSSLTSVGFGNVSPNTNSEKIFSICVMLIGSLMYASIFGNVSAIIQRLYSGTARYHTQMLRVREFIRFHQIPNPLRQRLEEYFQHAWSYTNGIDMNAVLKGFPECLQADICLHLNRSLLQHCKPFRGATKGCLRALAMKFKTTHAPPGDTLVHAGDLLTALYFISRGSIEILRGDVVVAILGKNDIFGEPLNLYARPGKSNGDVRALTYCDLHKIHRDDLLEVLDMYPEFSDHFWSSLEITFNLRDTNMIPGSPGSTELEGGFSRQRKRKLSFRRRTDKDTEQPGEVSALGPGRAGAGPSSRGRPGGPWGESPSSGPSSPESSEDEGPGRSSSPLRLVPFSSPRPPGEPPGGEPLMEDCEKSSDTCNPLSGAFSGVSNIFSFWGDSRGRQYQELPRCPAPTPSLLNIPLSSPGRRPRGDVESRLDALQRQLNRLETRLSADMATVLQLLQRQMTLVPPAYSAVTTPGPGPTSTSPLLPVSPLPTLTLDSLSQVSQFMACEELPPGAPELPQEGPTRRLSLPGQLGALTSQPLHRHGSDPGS

| SMILES | hERG current change (%, negative = inhibition) at 10uM |
| --- | --- |
| CC(C)(C)C(=O)NCCCc1nc2ccccc2n1CCCOc1ccc(Cl)cc1 | -57.2% |
| COC(=O)c1ccc(Oc2nc(NC(C)C)nc(NC(C)C)n2)cc1 | 7.64% |
| CCCCNS(=O)(=O)c1ccc(OCC(=O)OC)cc1 | -33.1% |
| CCNC(=O)Cn1cc(C(F)(F)F)cc(Cl)c1=O | 4.71% |
| CCCNC(=O)COc1ccc2c(=O)c(Oc3ccccc3F)coc2c1 | -61.6% |
| O=C(Nc1ccc(O)cc1)c1ccc2c(c1)C(=O)N(N1C(=O)c3ccccc3C1=O)C2=O | -4.59% |
| COc1cc(-c2cc(C(=O)Nc3ccc(S(=O)(=O)NCc4ccco4)cc3)c3ccccc3n2)cc(OC)c1OC | 7.98% |
| CC(=O)Nc1nc(-c2ccccc2)cc(-c2ccco2)c1C#N | 6.82% |
| CCc1nnc(NS(=O)(=O)c2ccc(N=Cc3c(C)[nH]n(-c4ccc(C)cc4)c3=O)cc2)s1 | -7.16% |
| Cc1cccc(C)c1NC(=S)NC1CCCCC1 | 8.33% |
| CC(C)CNC(=S)NC1CC2CCCC(C1)N2C1CCCCC1 (stereo not shown) | 18% |
| C#CCOCCOCCOCCNc1nc(N2CCN(C(=O)[C@H](CCC(=O)O)n3cc(C(N)CO)nn3)CC2)nc(N2CCN(C(=O)[C@H](CCC(=O)O)n3cc(C(N)[C@H](C)CC)nn3)CC2)n1.Cl (stereo partly shown) | -12.8% |
| Cc1cc2c(o1)CC(C)(C)CC2=O | 16.8% |
| O=C(c1ccc(COCC(F)(F)F)o1)N1CCCCCC1 | -12% |
| CC(C)(C)OC(=O)N1CCCC1C(=O)NC(Cc1ccccc1)C(=O)O (stereo not drawn) (Boc-Pro-Phe-OH; configuration not given here) | 6.32% |
| CC(=O)Oc1ccc2ccc(=O)oc2c1 | 27.2% |
| COc1cc(C(=O)NCC(=O)OCC(=O)Nc2nnc(-c3ccccc3)o2)cc(OC)c1OC | 26.7% |
| CCCCn1c(N)c(N(CC)C(=O)C2CCN(C(=O)c3ccccc3C)CC2)c(=O)[nH]c1=O | -2.13% |
| Cc1ccc(S(=O)(=O)N2CCC3(CC2)OCCN3S(=O)(=O)c2c(C)cc(C)cc2C)cc1 | 14.3% |
| CN(C)CCCN(C(=O)c1ccco1)c1nc2cc3c(cc2s1)OCO3.Cl | -43.7% |
| FC(F)Sc1ccc(NC(=S)NCc2ccccc2)cc1 | -18.9% |
| COc1c(F)cccc1C1=CC(=O)C[C@H](c2ccc3c(c2)OCO3)C1 | 19.8% |
| CCCCN(Cc1ccccc1)C1CCN(Cc2ccccc2)CC1 | -53.5% |
| O=C(NCC1CCCO1)C1CCN(C(=O)c2ccc(Cl)cc2)CC1 (stereo not shown) | -1.73% |
| Cc1cccc(-n2cc(CN3CCN(Cc4nccn4C)CC3)c(-c3cccc(F)c3)n2)c1 | 2.98% |
| C=C(C)c1cccc(C(C)(C)NC(=O)NC(c2ccccc2)c2ccc(OC)cc2)c1 (stereo not shown) | -20% |

| SMILES | hERG current change (%, negative = inhibition) at 10uM |
| --- | --- |
| CCC(=O)Nc1cccc(C2=NOC3(C2)C[C@@H](C(N)=O)N(C(=O)c2cc([N+](=O)[O-])cc([N+](=O)[O-])c2C)C3)c1 (stereo partly shown) | -9.23% |
| C/C(=N\Nc1ccc(S(N)(=O)=O)cc1[N+](=O)[O-])c1ccco1 | -3.64% |
| COc1ccc(C(=O)OC2C[C@H]3CC[C@H](C2)N3C)cc1OC.Cl (stereo partly shown) | -4.94% |
| Cc1c(C(=O)N2CCN(c3ccc(C(F)(F)F)cn3)CC2)oc2ccccc12 | -4.85% |
| CCNc1sc(S(C)(=O)=O)nc1S(=O)(=O)c1ccc(Cl)cc1 | 17.8% |
| Cc1ccc(CNC(=O)C2(S(=O)(=O)c3ccc(C)cc3)CC2)cc1 | 4.02% |
| O=C(NCCc1cccc(F)c1)C1CCCN(c2nc3ccccc3s2)C1 (stereo not shown) | 7.76% |
| COc1ccc(Cl)cc1C(=O)NNC(=O)c1cccc(S(=O)(=O)N(C)C)c1 | -6.73% |
| CCOC(=O)C1=C(O)C(=O)NC(c2ccccc2)=C(OC2CCCCC2)C1 | 5.9% |
| CN(C)CCNC(=S)Nc1ccccc1Cl | -0.904% |
| COc1ccc(/C=C(/NC(=O)c2ccc([N+](=O)[O-])cc2)C(=O)NC(C)(C)C)cc1 | -40.8% |
| CC(NC(=O)COC(=O)C1CSC2(C)CCC(=O)N12)C12CC3CC(CC(C3)C1)C2 (stereo not shown) | 8.92% |
| COc1nn(CC(=O)N2N=C(C)CC2(O)C(F)F)cc1[N+](=O)[O-] (stereo not shown) | 4.18% |
| COc1cc(/C=N\Nc2nc3ccccc3[nH]2)cc(OC)c1OC | -19.8% |
| COc1ccc(-c2cc(C(F)(F)F)n3nc(C(=O)NCc4ccco4)cc3n2)cc1OC | 3.75% |
| CCOc1cc(S(=O)(=O)NCC2OCCc3ccccc32)c(OCC)cc1-n1cnnn1 (stereo not shown) | -21.5% |
| CC1CN(Cc2ccccn2)CCC1=O.Cl (stereo not shown) | 8.17% |
| C/C(=N\N(C)c1ccccc1)c1c(O)[nH]c(=O)[nH]c1=O | 7.71% |
| CCN(CC)CCOCCOc1ccccc1F | -3.91% |
| Cc1cc(Br)ccc1-n1[nH]c(C)c(C=Nc2cccc3nsnc23)c1=O | 40.7% |
| Cn1nc(C(C)(C)C)cc1C(=O)Nc1nc2c(s1)C(=O)CC(C)(C)C2 | -21% |
| O=[N+]([O-])c1ccc2nonc2c1Nc1ccccc1 | -2.23% |
| COC(=O)C1=C(C(=O)OC)C(c2cc([N+](=O)[O-])ccc2O)c2sc(=O)[nH]c2S1 (stereo not shown) | 1.28% |
| COC(=O)c1[nH]c2cccc(OC)c2c1NC(=O)C(C)N1CCC(C)CC1 (stereo not shown) | -21.6% |
| Cn1c(CCN2CCCCC2)nc2cc(NS(=O)(=O)c3ccc(F)cc3)ccc21 | -67.6% |
| COc1ccc(-n2nc(C(=O)Nc3nc4ccc(OC)cc4s3)c3ccccc3c2=O)cc1 | 1.17% |
